No constants are given. Whether binding was seen depends on the method and setting. In cells and extracts the contact can be indirect. Some results given as binding are weak or reduced against the parent protein; the word gives no strength.
Legend:
[1] = molecular target: T1, Gasdermin D (GSDMD), endogenous in HT-29 cells (human (endogenous in HT-29)) (UniProt P57764); assay: proximity ligation; Duolink PLA of endogenous IQGAP1 and GSDMD in HT-29 cells (scramble or IQGAP1 siRNA) after LPS 4 h and ATP 30 min
T1 sequence: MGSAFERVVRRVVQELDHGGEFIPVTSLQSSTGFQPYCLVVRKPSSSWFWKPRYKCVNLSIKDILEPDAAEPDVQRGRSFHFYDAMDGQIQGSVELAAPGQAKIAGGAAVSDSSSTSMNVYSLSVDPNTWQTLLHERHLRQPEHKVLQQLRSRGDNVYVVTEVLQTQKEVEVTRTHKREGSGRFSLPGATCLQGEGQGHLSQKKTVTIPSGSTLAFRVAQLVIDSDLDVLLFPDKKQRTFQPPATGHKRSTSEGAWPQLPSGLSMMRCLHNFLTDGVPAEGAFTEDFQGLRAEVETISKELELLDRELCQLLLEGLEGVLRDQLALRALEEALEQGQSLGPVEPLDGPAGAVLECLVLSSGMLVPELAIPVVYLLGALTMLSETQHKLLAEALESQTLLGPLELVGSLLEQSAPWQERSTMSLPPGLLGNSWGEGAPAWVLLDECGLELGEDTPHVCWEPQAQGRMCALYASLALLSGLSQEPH

Sequences of proteins named here, by UniProt entry; tags and fusion partners are left off. A change or cut given only in a name is not applied to a line headed by its entry. A line that says so, or that is headed by a name, gives the form on record, which may keep a tag or linker. Residues count along the entry.
UniProt Q9JKF1: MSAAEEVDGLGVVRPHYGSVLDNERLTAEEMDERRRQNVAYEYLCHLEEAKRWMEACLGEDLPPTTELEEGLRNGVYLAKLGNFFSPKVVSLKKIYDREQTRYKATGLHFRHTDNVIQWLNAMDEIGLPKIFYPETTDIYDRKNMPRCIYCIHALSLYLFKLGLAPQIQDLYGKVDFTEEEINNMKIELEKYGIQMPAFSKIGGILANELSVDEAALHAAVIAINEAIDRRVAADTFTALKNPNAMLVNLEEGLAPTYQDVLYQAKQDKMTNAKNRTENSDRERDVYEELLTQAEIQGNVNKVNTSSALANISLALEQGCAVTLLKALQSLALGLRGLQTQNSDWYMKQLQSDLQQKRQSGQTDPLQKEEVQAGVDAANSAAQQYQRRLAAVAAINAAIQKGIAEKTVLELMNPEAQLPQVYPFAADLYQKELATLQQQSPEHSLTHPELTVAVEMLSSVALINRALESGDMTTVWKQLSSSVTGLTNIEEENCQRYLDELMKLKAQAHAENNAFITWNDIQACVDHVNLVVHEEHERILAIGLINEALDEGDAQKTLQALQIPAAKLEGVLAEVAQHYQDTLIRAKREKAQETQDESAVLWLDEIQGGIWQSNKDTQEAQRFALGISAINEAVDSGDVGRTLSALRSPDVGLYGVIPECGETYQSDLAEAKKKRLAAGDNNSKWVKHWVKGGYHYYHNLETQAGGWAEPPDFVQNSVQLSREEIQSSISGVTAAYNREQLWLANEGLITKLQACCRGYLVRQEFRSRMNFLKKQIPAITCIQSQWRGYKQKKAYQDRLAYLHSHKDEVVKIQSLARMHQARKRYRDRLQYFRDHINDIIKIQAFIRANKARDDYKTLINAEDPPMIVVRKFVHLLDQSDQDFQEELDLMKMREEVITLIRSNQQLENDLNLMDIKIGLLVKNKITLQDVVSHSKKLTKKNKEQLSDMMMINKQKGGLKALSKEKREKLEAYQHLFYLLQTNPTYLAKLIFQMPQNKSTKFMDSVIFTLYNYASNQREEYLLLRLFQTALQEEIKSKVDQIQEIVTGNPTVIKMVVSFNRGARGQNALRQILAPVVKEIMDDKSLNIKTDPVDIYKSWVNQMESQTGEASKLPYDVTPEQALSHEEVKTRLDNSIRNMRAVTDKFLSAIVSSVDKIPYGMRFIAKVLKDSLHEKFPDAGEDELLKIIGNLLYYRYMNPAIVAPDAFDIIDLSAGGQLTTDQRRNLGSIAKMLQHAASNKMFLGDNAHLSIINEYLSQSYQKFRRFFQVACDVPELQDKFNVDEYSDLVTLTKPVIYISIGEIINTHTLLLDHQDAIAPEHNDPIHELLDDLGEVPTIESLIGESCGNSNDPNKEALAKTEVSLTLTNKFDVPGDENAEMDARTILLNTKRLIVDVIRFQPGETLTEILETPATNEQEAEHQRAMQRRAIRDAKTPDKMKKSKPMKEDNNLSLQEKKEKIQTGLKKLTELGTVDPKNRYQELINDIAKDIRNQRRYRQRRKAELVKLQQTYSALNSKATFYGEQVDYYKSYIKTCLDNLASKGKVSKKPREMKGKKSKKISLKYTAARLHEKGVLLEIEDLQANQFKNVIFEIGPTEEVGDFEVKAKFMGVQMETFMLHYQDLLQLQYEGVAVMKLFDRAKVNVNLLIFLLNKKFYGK
mouse IQGAP1 deletion mutant lacking the IQ domain (4 IQ motifs, residues 745-856), in HEK293 cells (Q9JKF1, form named): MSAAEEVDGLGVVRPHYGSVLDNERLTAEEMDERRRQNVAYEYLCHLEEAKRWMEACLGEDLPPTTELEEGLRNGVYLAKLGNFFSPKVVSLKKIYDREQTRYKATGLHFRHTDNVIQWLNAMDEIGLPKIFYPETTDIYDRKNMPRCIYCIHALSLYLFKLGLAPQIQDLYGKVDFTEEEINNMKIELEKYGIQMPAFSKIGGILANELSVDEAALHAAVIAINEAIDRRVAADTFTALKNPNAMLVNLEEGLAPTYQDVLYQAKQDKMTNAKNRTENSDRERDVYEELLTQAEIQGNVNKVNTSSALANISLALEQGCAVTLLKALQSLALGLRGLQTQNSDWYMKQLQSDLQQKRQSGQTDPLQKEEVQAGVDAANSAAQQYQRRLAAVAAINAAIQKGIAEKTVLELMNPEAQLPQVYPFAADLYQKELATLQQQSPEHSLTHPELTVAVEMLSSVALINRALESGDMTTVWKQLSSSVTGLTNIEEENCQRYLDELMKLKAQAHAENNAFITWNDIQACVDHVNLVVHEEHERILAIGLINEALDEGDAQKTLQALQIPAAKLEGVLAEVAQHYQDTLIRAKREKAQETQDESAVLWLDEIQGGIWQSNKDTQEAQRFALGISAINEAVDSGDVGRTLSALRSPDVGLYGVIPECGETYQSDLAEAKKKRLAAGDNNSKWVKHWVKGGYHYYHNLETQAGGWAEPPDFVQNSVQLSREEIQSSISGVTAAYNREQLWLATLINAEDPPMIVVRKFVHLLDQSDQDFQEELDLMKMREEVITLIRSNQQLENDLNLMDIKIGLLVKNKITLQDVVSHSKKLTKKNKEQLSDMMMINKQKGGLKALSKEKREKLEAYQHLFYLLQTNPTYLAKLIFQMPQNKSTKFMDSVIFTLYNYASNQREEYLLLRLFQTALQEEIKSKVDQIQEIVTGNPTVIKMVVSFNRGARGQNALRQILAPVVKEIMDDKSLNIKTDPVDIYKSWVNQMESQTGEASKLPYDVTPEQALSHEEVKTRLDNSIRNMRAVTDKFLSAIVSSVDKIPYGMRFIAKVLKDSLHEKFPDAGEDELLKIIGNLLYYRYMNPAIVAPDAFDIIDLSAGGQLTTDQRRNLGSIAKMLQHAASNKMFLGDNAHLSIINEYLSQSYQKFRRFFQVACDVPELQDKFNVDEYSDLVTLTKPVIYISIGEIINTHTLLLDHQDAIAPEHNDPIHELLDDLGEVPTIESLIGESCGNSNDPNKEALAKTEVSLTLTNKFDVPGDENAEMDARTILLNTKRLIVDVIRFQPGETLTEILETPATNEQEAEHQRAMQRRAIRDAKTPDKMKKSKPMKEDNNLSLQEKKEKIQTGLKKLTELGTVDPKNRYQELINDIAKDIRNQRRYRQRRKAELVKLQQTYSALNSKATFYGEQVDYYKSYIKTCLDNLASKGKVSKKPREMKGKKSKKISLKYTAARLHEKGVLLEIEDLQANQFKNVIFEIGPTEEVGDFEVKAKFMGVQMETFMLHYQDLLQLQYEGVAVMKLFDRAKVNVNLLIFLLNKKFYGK
UniProt P46940: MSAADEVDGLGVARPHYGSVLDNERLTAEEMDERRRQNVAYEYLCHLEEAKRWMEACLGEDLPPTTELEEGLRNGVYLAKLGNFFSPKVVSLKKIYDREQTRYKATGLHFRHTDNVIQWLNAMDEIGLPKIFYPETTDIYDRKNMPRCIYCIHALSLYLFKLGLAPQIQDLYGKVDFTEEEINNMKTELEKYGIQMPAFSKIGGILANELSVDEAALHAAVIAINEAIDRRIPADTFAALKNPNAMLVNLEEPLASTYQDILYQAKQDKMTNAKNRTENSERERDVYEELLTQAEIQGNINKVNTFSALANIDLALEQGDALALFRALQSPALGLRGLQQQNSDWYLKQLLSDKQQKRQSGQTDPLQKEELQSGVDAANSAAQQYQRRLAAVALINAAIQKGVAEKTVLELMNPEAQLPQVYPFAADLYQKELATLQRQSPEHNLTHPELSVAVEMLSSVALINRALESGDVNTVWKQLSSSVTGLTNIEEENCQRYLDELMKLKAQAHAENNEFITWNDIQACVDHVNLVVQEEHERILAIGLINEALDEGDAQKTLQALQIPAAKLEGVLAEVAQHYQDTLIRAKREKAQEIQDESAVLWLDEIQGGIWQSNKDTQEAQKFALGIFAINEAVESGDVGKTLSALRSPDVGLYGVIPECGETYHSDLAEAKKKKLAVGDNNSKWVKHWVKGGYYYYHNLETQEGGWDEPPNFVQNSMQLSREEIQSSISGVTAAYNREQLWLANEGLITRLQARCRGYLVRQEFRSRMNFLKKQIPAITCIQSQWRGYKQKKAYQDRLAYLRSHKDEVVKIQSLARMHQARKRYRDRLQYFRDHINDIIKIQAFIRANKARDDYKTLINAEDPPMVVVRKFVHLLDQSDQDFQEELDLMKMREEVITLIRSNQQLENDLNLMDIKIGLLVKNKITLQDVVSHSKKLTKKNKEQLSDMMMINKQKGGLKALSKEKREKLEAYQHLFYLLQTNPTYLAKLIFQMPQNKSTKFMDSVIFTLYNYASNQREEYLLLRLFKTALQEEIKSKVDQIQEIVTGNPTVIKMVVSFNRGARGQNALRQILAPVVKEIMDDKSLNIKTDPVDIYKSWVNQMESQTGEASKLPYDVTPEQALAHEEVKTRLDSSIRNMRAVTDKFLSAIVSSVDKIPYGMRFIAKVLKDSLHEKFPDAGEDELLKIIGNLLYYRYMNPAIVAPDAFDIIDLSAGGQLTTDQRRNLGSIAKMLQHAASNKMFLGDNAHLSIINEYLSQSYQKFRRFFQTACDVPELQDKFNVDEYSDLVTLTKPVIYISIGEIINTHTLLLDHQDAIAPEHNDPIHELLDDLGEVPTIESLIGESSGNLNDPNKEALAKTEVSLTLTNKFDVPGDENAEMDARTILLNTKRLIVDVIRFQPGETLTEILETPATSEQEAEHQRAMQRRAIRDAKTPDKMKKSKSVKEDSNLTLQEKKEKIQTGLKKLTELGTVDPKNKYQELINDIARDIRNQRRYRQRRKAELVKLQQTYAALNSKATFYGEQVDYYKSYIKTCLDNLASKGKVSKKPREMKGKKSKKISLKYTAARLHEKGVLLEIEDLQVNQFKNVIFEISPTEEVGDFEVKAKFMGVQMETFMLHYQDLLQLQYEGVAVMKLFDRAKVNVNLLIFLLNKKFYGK
UniProt P60766: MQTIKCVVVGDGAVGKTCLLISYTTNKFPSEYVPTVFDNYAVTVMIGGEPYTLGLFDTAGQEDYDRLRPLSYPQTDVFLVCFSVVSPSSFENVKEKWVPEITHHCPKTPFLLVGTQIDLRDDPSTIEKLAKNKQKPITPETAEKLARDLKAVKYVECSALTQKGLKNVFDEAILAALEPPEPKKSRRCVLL
UniProt P46935: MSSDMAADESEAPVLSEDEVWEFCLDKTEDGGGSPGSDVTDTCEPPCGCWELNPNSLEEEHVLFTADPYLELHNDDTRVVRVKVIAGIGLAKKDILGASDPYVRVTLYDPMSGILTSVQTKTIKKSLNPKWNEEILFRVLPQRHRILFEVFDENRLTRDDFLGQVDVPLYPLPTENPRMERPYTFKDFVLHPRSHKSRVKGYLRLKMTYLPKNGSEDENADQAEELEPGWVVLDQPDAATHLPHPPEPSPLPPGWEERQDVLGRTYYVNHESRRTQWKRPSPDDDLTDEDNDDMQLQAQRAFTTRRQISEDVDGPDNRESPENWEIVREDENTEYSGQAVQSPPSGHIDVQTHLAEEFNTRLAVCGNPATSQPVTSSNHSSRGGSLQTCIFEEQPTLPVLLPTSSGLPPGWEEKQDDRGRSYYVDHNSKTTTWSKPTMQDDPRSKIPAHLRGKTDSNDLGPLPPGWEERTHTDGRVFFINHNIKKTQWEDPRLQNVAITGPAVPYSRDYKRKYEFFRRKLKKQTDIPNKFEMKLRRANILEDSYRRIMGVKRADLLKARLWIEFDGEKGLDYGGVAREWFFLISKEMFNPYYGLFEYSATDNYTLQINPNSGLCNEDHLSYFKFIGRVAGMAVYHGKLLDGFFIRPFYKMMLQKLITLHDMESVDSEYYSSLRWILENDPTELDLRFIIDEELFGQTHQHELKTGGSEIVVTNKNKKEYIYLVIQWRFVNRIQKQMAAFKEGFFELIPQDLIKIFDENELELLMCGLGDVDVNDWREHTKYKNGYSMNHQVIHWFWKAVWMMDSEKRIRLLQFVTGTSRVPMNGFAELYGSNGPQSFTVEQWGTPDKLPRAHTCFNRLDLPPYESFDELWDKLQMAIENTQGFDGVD

[2] = molecular target: T2, Gasdermin D (GSDMD), endogenous in YAMC cells (mouse (endogenous in YAMC)) (UniProt Q9D8T2); assay: proximity ligation; Duolink PLA of endogenous proteins in YAMC cells after LPS or LPS plus ATP, cells fixed with 4% PFA, primary antibodies overnight at 4°C; knockout cells as controls
T2 sequence: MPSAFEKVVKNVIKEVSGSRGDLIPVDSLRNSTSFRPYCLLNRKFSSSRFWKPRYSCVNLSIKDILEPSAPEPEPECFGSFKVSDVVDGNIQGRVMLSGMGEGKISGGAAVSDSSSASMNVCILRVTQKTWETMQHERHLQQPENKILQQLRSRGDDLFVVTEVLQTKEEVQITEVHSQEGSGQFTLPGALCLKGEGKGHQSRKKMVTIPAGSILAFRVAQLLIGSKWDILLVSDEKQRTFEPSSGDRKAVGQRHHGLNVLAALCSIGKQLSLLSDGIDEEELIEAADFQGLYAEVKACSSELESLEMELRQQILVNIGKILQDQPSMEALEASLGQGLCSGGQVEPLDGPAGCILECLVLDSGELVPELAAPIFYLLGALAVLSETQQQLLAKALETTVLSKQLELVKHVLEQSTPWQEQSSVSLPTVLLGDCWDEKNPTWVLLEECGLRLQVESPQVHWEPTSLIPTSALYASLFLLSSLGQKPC

[3] = molecular target: T2, Gasdermin D (GSDMD), endogenous in YAMC cells (mouse (endogenous in YAMC)); assay: co-IP; endogenous proteins from YAMC lysates (wild-type and knockout cells; untreated, LPS 4 h, or LPS plus ATP); lysis buffer with 0.5% Triton X-100, 50 mM Tris-HCl pH 7.4, 150 mM NaCl; antibody and protein A/G Sepharose overnight at 4°C; Western blot
[4] = molecular target: wild-type full-length mouse IQGAP1 (FL) restored in IQGAP1 KO YAMC cells (mouse) (UniProt Q9JKF1); assay: proximity ligation; Duolink PLA in IQGAP1 KO YAMC cells restored with IQGAP1 FL, ΔIQ or ΔGRD, LPS plus ATP treated
[5] = molecular target: Ras GTPase-activating-like protein IQGAP1, endogenous in YAMC cells (mouse (endogenous in YAMC)) (UniProt Q9JKF1); assay: proximity ligation; Duolink PLA of endogenous proteins in YAMC cells after LPS or LPS plus ATP, cells fixed with 4% PFA, primary antibodies overnight at 4°C; knockout cells as controls
[6] = molecular target: Ras GTPase-activating-like protein IQGAP1, endogenous in YAMC cells (mouse (endogenous in YAMC)) (UniProt Q9JKF1); assay: co-IP; endogenous proteins from YAMC lysates (wild-type and knockout cells; untreated, LPS 4 h, or LPS plus ATP); lysis buffer with 0.5% Triton X-100, 50 mM Tris-HCl pH 7.4, 150 mM NaCl; antibody and protein A/G Sepharose overnight at 4°C; Western blot
[7] = molecular target: T2, Gasdermin D (GSDMD), endogenous in YAMC cells (mouse (endogenous in YAMC)); assay: proximity ligation; Duolink PLA in IQGAP1 KO YAMC cells restored with IQGAP1 FL, ΔIQ or ΔGRD, LPS plus ATP treated
[8] = molecular target: full-length mouse IQGAP1 overexpressed in HEK293 cells (mouse) (UniProt Q9JKF1); assay: co-IP; proteins overexpressed in HEK293 cells; lysis buffer with 0.5% Triton X-100, 50 mM Tris-HCl pH 7.4, 150 mM NaCl; antibody and protein A/G Sepharose overnight at 4°C; Western blot
[9] = molecular target: Ras GTPase-activating-like protein IQGAP1, endogenous in YAMC cells (mouse (endogenous in YAMC)) (UniProt Q9JKF1); assay: co-IP; GSDMD KO YAMC cells restored with GSDMD (WT or D276A), endogenous IQGAP1; cells treated as indicated; Western blot
[10] = molecular target: Ras GTPase-activating-like protein IQGAP1, endogenous in YAMC cells (mouse (endogenous in YAMC)) (UniProt Q9JKF1); assay: co-IP; endogenous proteins from YAMC lysates (wild-type and knockout cells; untreated, LPS 4 h, or LPS plus ATP); lysis buffer with 0.5% Triton X-100, 50 mM Tris-HCl pH 7.4, 150 mM NaCl; antibody and protein A/G Sepharose overnight at 4°C; Western blot; remark: listed apart in the source
[11] = molecular target: T2, Gasdermin D (GSDMD), endogenous in YAMC cells (mouse (endogenous in YAMC)); assay: as above; remark: listed apart in the source
[12] = molecular target: mouse IQGAP1 deletion mutant lacking the IQ domain (4 IQ motifs, residues 745-856), in HEK293 cells (mouse) (UniProt Q9JKF1); assay: co-IP; proteins overexpressed in HEK293 cells; lysis buffer with 0.5% Triton X-100, 50 mM Tris-HCl pH 7.4, 150 mM NaCl; antibody and protein A/G Sepharose overnight at 4°C; Western blot

IQGAP1, endogenous in HT-29 cells (from UniProt P46940 1-1657)
binding [1]: binds

Ras GTPase-activating-like protein IQGAP1, endogenous in YAMC cells (from UniProt Q9JKF1 1-1657)
binding [2]: binds | binding [3]: binds

CDC42, endogenous in YAMC cells (from UniProt P60766 1-191)
binding [4]: binds | binding [5]: binds | binding [6]: binds

NEDD4, endogenous in YAMC cells (from UniProt P46935 1-887)
binding [3]: binds

mouse IQGAP1 with deletion in its IQ domain (ΔIQ) restored in IQGAP1 KO YAMC cells (from UniProt Q9JKF1 1-1657)
binding [7]: no binding

B1: mouse GSDMD cleavage mutant D276A overexpressed in HEK293 cells (protein, UniProt Q9D8T2 1-487)
chain: MPSAFEKVVKNVIKEVSGSRGDLIPVDSLRNSTSFRPYCLLNRKFSSSRFWKPRYSCVNLSIKDILEPSAPEPEPECFGSFKVSDVVDGNIQGRVMLSGMGEGKISGGAAVSDSSSASMNVCILRVTQKTWETMQHERHLQQPENKILQQLRSRGDDLFVVTEVLQTKEEVQITEVHSQEGSGQFTLPGALCLKGEGKGHQSRKKMVTIPAGSILAFRVAQLLIGSKWDILLVSDEKQRTFEPSSGDRKAVGQRHHGLNVLAALCSIGKQLSLLSAGIDEEELIEAADFQGLYAEVKACSSELESLEMELRQQILVNIGKILQDQPSMEALEASLGQGLCSGGQVEPLDGPAGCILECLVLDSGELVPELAAPIFYLLGALAVLSETQQQLLAKALETTVLSKQLELVKHVLEQSTPWQEQSSVSLPTVLLGDCWDEKNPTWVLLEECGLRLQVESPQVHWEPTSLIPTSALYASLFLLSSLGQKPC
binding [8]: binds

B2: mouse GSDMD cleavage mutant D276A restored in GSDMD KO YAMC cells (protein, UniProt Q9D8T2 1-487)
chain: MPSAFEKVVKNVIKEVSGSRGDLIPVDSLRNSTSFRPYCLLNRKFSSSRFWKPRYSCVNLSIKDILEPSAPEPEPECFGSFKVSDVVDGNIQGRVMLSGMGEGKISGGAAVSDSSSASMNVCILRVTQKTWETMQHERHLQQPENKILQQLRSRGDDLFVVTEVLQTKEEVQITEVHSQEGSGQFTLPGALCLKGEGKGHQSRKKMVTIPAGSILAFRVAQLLIGSKWDILLVSDEKQRTFEPSSGDRKAVGQRHHGLNVLAALCSIGKQLSLLSAGIDEEELIEAADFQGLYAEVKACSSELESLEMELRQQILVNIGKILQDQPSMEALEASLGQGLCSGGQVEPLDGPAGCILECLVLDSGELVPELAAPIFYLLGALAVLSETQQQLLAKALETTVLSKQLELVKHVLEQSTPWQEQSSVSLPTVLLGDCWDEKNPTWVLLEECGLRLQVESPQVHWEPTSLIPTSALYASLFLLSSLGQKPC
binding [9]: binds

B3: full-length mouse GSDMD I105N (pyroptosis mutant) (protein, UniProt Q9D8T2 1-487)
chain: MPSAFEKVVKNVIKEVSGSRGDLIPVDSLRNSTSFRPYCLLNRKFSSSRFWKPRYSCVNLSIKDILEPSAPEPEPECFGSFKVSDVVDGNIQGRVMLSGMGEGKNSGGAAVSDSSSASMNVCILRVTQKTWETMQHERHLQQPENKILQQLRSRGDDLFVVTEVLQTKEEVQITEVHSQEGSGQFTLPGALCLKGEGKGHQSRKKMVTIPAGSILAFRVAQLLIGSKWDILLVSDEKQRTFEPSSGDRKAVGQRHHGLNVLAALCSIGKQLSLLSDGIDEEELIEAADFQGLYAEVKACSSELESLEMELRQQILVNIGKILQDQPSMEALEASLGQGLCSGGQVEPLDGPAGCILECLVLDSGELVPELAAPIFYLLGALAVLSETQQQLLAKALETTVLSKQLELVKHVLEQSTPWQEQSSVSLPTVLLGDCWDEKNPTWVLLEECGLRLQVESPQVHWEPTSLIPTSALYASLFLLSSLGQKPC
binding [8]: binds

B4: Tsg101, endogenous in YAMC cells (protein, UniProt Q61187 1-391)
chain: MAVSESQLKKMMSKYKYRDLTVRQTVNVIAMYKDLKPVLDSYVFNDGSSRELVNLTGTIPVRYRGNIYNIPICLWLLDTYPYNPPICFVKPTSSMTIKTGKHVDANGKIYLPYLHDWKHPRSELLELIQIMIVIFGEEPPVFSRPTVSASYPPYTATGPPNTSYMPGMPSGISAYPSGYPPNPSGYPGCPYPPAGPYPATTSSQYPSQPPVTTVGPSRDGTISEDTIRASLISAVSDKLRWRMKEEMDGAQAELNALKRTEEDLKKGHQKLEEMVTRLDQEVAEVDKNIELLKKKDEELSSALEKMENQSENNDIDEVIIPTAPLYKQILNLYAEENAIEDTIFYLGEALRRGVIDLDVFLKHVRLLSRKQFQLRALMQKARKTAGLSDLY
binding [10]: binds

B5: CDC37, endogenous in YAMC cells (protein, UniProt Q61081 1-379)
chain: MVDYSVWDHIEVSDDEDETHPNIDTASLFRWRHQARVERMEQFQKEKEELDRGCRECKRKVAECQRKLKELEVAESDGQVELERLRAEAQQLRKEERSWEQKLEDMRKKEKNMPWNVDTLSKDGFSKSMVNTKPEKAEEDSEEAREQKHKTFVEKYEKQIKHFGMLHRWDDSQKYLSDNVHLVCEETANYLVIWCIDLEVEEKCALMEQVAHQTMVMQFILELAKSLKVDPRACFRQFFTKIKTADHQYMEGFKYELEAFKERVRGRAKLRIEKAMKEYEEEERKKRLGPGGLDPVEVYESLPEELQKCFDVKDVQMLQDAISKMDPTDAKYHMQRCIDSGLWVPNSKSGEAKEGEEAGPGDPLLEAVPKAGNEKDVSA
binding [11]: binds

B6: full-length mouse GSDMD overexpressed in HEK293 cells (protein, UniProt Q9D8T2 1-487)
chain: MPSAFEKVVKNVIKEVSGSRGDLIPVDSLRNSTSFRPYCLLNRKFSSSRFWKPRYSCVNLSIKDILEPSAPEPEPECFGSFKVSDVVDGNIQGRVMLSGMGEGKISGGAAVSDSSSASMNVCILRVTQKTWETMQHERHLQQPENKILQQLRSRGDDLFVVTEVLQTKEEVQITEVHSQEGSGQFTLPGALCLKGEGKGHQSRKKMVTIPAGSILAFRVAQLLIGSKWDILLVSDEKQRTFEPSSGDRKAVGQRHHGLNVLAALCSIGKQLSLLSDGIDEEELIEAADFQGLYAEVKACSSELESLEMELRQQILVNIGKILQDQPSMEALEASLGQGLCSGGQVEPLDGPAGCILECLVLDSGELVPELAAPIFYLLGALAVLSETQQQLLAKALETTVLSKQLELVKHVLEQSTPWQEQSSVSLPTVLLGDCWDEKNPTWVLLEECGLRLQVESPQVHWEPTSLIPTSALYASLFLLSSLGQKPC
binding [8]: binds | binding [12]: no binding

— publication PMC9811620
